# Assay results from PubChem BioAssay AID504832 (National Center for Advancing Translational Sciences (NCATS), 2011).
# Screen size: about 310,000 compounds; about 18,000 (5.8%) were called active. This list was built around the results that the source calls inconclusive (neither active nor inactive); the mix of calls is not that of the screen. Calls follow the shape of the dose curve; as a rule, active = well fitted inhibition curve with a large enough effect; inconclusive = small, poorly fitted or top-dose-only effect, or another doubt; inactive = no such curve, though single readings can be large or run the other way. Potencies of inconclusive entries are left out as doubtful fits.
# Assay: Primary qHTS for delayed death inhibitors of the malarial parasite plastid, 48 hour incubation
# Settings: P. falciparum luciferase growth in erythrocytes; series mostly up to 28.7 µM; activity change, negative = inhibition: at the top concentration
# Summary of the method: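 Here the parasites carry a stable luciferase gene and grow inside erythrocytes in Albumax-based RPMI medium with compound for one erythrocytic cycle. Activity is scored as loss of luminescent signal.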
# % is scaled to controls: 0 for no effect and ±100 for the full control effect; potency is read from the fitted curve at half-maximal effect; tags tell the direction and shape of the fitted curve.
Structure (SMILES),Potency,"activity change, negative = inhibition"
Cc1csc(=N)n1CC(=O)N1CCc2ccccc21,"inconclusive [inhibitor, full curve, poor fit]",
O=C(Nc1ccc(F)cc1)Nc1ccccc1N1CCCCC1,"inconclusive [inhibitor, single point]",
CCOC(=O)Cc1csc(NC(=O)/C=C/c2ccco2)n1,,inactive: 58.7%
CN(C(=O)c1cc2sccc2n1C)C1CCCCC1,,inactive: 78.7%
CC(=O)Nc1cccc(NC(=O)CSc2ncc(C(=O)Nc3ccccc3)c(=O)n2C)c1,"inconclusive [inhibitor, single point]",
CCCCCCN1C2=NCCCN2c2ccccc21,"inconclusive [inhibitor, single point]",
CCCN(CC(=O)Nc1ccccc1OC)C(=O)CCC(=O)c1ccc(F)cc1,"inconclusive [inhibitor, single point]",
CCCS(=O)(=O)N1CCCC(C(=O)N2CCOCC2)C1 (centres undefined),,inactive: 0%
O=C1CC(N2CCN(S(=O)(=O)c3ccc([N+](=O)[O-])cc3)CC2)C(=O)N1c1ccccc1F (centres undefined),"inconclusive [inhibitor, single point]",
Cc1cccc(NC(=S)N/N=C/C(C)c2ccccc2)c1C (centres undefined),"inconclusive [inhibitor, partial curve, poor fit]",
CC(C)Oc1ccc(CCc2n[nH]c(=S)n2Cc2ccccc2)cc1,active: 2.08 µM,
COc1ccc(-c2ccc(=O)n(Cc3c(F)cccc3Cl)n2)cc1,,inactive: 11.8%
O=C(CNCc1ccc(Cl)cc1)Nc1ccc2c(c1)OCCO2,,inactive: -8.66%
O=C(/C=C/c1ccco1)N1CCC(Cc2ccccc2)CC1,"inconclusive [inhibitor, partial curve]",
O=c1c2cccnc2n(-c2ccccc2)n1Cc1ccc(Cl)cc1,"inconclusive [inhibitor, single point]",
O=C(O)CC1SC(=O)N(Cc2ccccc2)C1=O (centres undefined),"inconclusive [inhibitor, full curve, poor fit]",
CC(=O)Nc1ccc2nc(NC(=O)CS(=O)(=O)c3ccccc3)sc2c1,,inactive: -1.53%
COc1ccc(/C=C(\NC(=O)c2ccccc2)C(=O)OC[C@@H]2CCC[N+]3(C)CCCCC23)cc1OC (some centres undefined),"inconclusive [inhibitor, single point]",
Cc1cc2c(ncn2Cc2ccccc2)c(N)c1C,"inconclusive [inhibitor, partial curve]",
CSc1ccccc1NC(=O)CN1CCN(S(=O)(=O)c2ccccc2[N+](=O)[O-])CC1,active: 9.28 µM,
O=C(O)c1ccccc1/C=N/NC(=O)C1CCCC1,,inactive: -16.4%
CCCc1nc2c(s1)CCc1onc(-c3ccc(Cl)cc3)c1-2,"inconclusive [inhibitor, single point]",
CC1CCC(NC(=O)c2ccc(COc3ccccc3)o2)CC1 (centres undefined),,inactive: 8.1%
COc1ccc(-c2nc3ccccc3nc2-c2ccccc2)cc1,"inconclusive [inhibitor, single point]",
COc1ccccc1C(=O)NCCC(=O)N1CCN(c2ccccc2O)CC1,active: 11.7 µM,

Structure (SMILES),Potency,"activity change, negative = inhibition"
Nc1ncnc2c1c(-c1ccc(Oc3ccccc3)cc1)cn2C1CCCC1,active: 8.28 µM,
CCC(=O)Oc1c(C(=O)CC)cc2c(C)cc(=O)oc2c1C,,inactive: 25%
O=C(CN(C(=O)c1cc2c(s1)CCC2)C1CCCC1)NCc1cccs1,"inconclusive [inhibitor, single point]",
CN(Cc1ccco1)C(=O)c1ccc(OC2CCN(Cc3ccccn3)CC2)cc1,"inconclusive [inhibitor, partial curve, poor fit]",
CCC(CO)Nc1nc(CN2CCCCC2)nc2scc(-c3ccccc3)c12 (centres undefined),"inconclusive [inhibitor, single point]",
CCOc1ccccc1NC(=O)C1CCCN(S(=O)(=O)c2ccc(OC)c(C)c2)C1 (centres undefined),active: 10.4 µM,
Cc1ccc(NC(=O)Cn2nc(C)c3ccccc3c2=O)cc1F,,inactive: -2.06%
CCOc1ccc(CNC(=O)C(=O)c2cn(CC(=O)N3CCOCC3)c3ccccc23)cc1OC,,inactive: 34.9%
CC(Oc1ccc(-c2ccccc2)c(F)c1)c1ccn(S(=O)(=O)c2ccc(Br)cc2)n1 (centres undefined),"inconclusive [inhibitor, partial curve, poor fit]",
CCN(CC)S(=O)(=O)c1ccc(N2CCCC2)c(NC(=O)Cc2c(F)cccc2Cl)c1,,inactive: 0.844%
CCCCC1CCc2[nH]nc(C(=O)O)c2C1 (centres undefined),"inconclusive [inhibitor, single point]",
COc1ccc(Sc2nnc(Cc3ccccc3)c3ccccc23)cc1,"inconclusive [inhibitor, single point]",
COc1ccc(/C=N/NC2=NS(=O)(=O)c3ccccc32)cc1OC(C)=O,"inconclusive [inhibitor, single point]",
COc1ccc(C(=O)NCC(C)(C)N2CCOCC2)cc1S(=O)(=O)N1CCCC1,,inactive: -1.93%
CC(C)CCNC(=O)CN(Cc1ccc(F)cc1)C(=O)CCC(=O)Nc1ccccn1,,inactive: 37.2%
CCc1cccc2c(C(=O)COC(=O)/C=C/c3ccc(O)c(OC)c3)c[nH]c12,"inconclusive [inhibitor, single point]",
CN(/N=C\c1ccc(O)c(O)c1)c1nc(-c2ccccc2)cc(-c2ccccc2)n1,active: 10.4 µM,
Cc1ccc(S(=O)(=O)N2CCCN(S(=O)(=O)c3ccc4ccccc4c3)CC2)cc1,"inconclusive [inhibitor, single point]",
CCc1nnc(NC=C2C(=O)OC(C)(C)OC2=O)s1,,inactive: 34.8%
C1CCC2(CC1)C1=C(CCCC1)Nc1nnnn12,,inactive: 1.13%
CCOc1ccc(NC(=O)CCCN2C(=O)C(c3ccccc3)Oc3cccnc32)cc1 (centres undefined),"inconclusive [inhibitor, single point]",
C1CNCCNCCCNCCNC1,,inactive: 4.47%
CC1(c2ccccc2)CC(C)(C)n2c(O)c(C3=NC(=S)NC3=O)c3cccc1c32 (centres undefined),,inactive: -2.12%
COc1ccc(-n2cc(CNCCCn3ccnc3)c(-c3ccccc3Cl)n2)cc1,active: 1.47 µM,
